# Out of some 110,000 compounds screened, about 230 (0.21%) showed an effect of 50% or more. Some of the results follow.
# Target: DPAP1 (Plasmodium falciparum, UniProt Q8IIJ9)
# Assay: primary screen, percent inhibition; read by cleavage of a fluorogenic dipeptide substrate; higher = more effect of the substance
# Design: species or system P. falciparum D10 trophozoite lysates; single well
# 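Also: 30 min substrate incubation versus DMSO and 10 µM JCP410 controls.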
# Sequence of DPAP1 (Q8IIJ9 whole entry, looked up): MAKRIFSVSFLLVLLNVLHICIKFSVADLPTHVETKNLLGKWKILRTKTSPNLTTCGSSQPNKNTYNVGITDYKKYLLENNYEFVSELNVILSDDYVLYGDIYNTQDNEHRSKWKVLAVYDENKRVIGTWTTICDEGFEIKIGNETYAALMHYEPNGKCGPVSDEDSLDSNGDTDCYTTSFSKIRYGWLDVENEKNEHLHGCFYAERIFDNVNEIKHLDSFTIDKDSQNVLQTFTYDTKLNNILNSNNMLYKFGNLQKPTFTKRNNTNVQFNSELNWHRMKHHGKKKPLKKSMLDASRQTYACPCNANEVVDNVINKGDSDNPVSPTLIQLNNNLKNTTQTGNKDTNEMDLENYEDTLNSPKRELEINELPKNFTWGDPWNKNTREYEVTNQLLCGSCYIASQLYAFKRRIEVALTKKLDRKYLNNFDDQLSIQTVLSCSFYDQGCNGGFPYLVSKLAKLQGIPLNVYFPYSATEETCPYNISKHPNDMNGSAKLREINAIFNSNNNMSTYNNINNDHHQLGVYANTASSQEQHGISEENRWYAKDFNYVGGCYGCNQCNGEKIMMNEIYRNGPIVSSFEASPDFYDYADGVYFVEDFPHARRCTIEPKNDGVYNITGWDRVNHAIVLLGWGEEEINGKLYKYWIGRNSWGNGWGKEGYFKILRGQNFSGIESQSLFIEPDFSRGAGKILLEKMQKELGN
row,Structure (SMILES),% Inhibition @ 10 uM [%]
1,O=C(O)CNC(=S)N(Cc1cccs1)C1CCCCC1,7.61
2,COc1cccc(CNc2nc3ccccc3n2CCN2CCOCC2)c1OC,-2.91
3,CC1=C(C(=O)Nc2ccccn2)C(c2ccc(Br)cc2)C2=C(O)CC(C)(C)CC2=N1 (centres unmarked),4.32
4,CCCOC(=O)c1ccc(NC(=O)c2ccccc2Br)cc1,2.22
5,COC(=O)C1=C(C)NC(=O)NC1c1cccc(Cl)c1Cl (centres unmarked),-2.2
6,CCC1(C)CC(CCN)(c2ccc(F)cc2)CCO1 (centres unmarked),-4.18
7,CCN1CCC(O)(c2ccc(F)cc2)C(C(=O)c2ccc(F)cc2)C1 (centres unmarked),-1.52
8,COc1ccccc1CCNC(=O)Cn1ccc2cc(S(=O)(=O)N3CCCC3)ccc21,-5.04
9,Cc1cccc(C)c1NC(=O)c1sc2nc3c(cc2c1N)CN(C)CC3,3.72
10,C=CCOc1ccccc1CNCc1cccs1,1.88
11,CCCOc1ccc(C(=O)NC(CC(C)C)C(=O)NCC#N)cc1 (centres unmarked),3.19
12,COc1ccccc1CNC(=O)c1cn(C)c(=O)c2c1c1ccccc1n2C,1.37
13,Cc1ccc(C(=O)N/C(=C\c2ccc(F)cc2)C(=O)NCCCn2ccnc2)cc1,6.51
14,N#CCNC(=O)[C@H](Cc1cc(Cl)c(O)c(Cl)c1)NC(=O)c1ccc(Br)cc1,0.173
15,Cc1cc(C)cc(NC(=O)CN(c2ccc(F)cc2)S(C)(=O)=O)c1,-5.27
16,Cc1nn(CCC(=O)NCC2CCCO2)c(=O)c2nn(-c3ccccc3)c(C)c12 (centres unmarked),-4
17,O=C(CSc1nc2c(c(=O)n1CCc1ccccc1)SCC2)NCc1ccccc1Cl,2.19
18,Cc1c(Br)c(C(F)(F)F)nn1CC(=O)NC12CC3CC(CC(C3)C1)C2,-5.69
19,CC(C)Cc1sc(C(=O)O)cc1[N+](=O)[O-],2.33
20,COc1ccc(C=C2C(=O)NC(=O)NC2=O)cc1,1.29
21,CCOCCCNC(=O)C1CCN(c2nnc(C)c3c(C)n(-c4ccc(Cl)cc4)nc23)CC1,-2.5
22,CCCN1CCN(C(=O)C2CCN(c3nn4cc(-c5ccc(C)cc5)nc4s3)CC2)CC1,7.9
23,COc1ccc(S(=O)(=O)NCCOC23CC4CC(CC(C4)C2)C3)cc1OC,-5.41
24,Cc1cc(C)c2c(CC(=O)N(Cc3ccc(C(C)C)cc3)C3CCS(=O)(=O)C3)coc2c1 (centres unmarked),-7.96
25,Cc1nn(-c2ccccc2)c(Cl)c1C1C(C#N)=C(N)Oc2[nH]nc(C(C)(C)C)c21 (centres unmarked),25.9

row,Structure (SMILES),% Inhibition @ 10 uM [%]
1,Cc1ccc(OCC(=O)Nc2ccccc2C(=O)Nc2ccccc2)cc1,-0.992
2,NS(=O)(=O)c1ccc(NC(=O)C2CC=CCC2C(=O)O)cc1 (centres unmarked),-1.88
3,CCOC(=O)c1c(C)[nH]c(C)c1S(=O)(=O)NCC(=O)NCc1ccc2c(c1)OCO2,-5.89
4,O=C(NCCCN1CCCC1)C1CC(=O)N(C2CCCC2)C1 (centres unmarked),-2.99
5,O=C(NC1CCN(Cc2ccccc2)CC1)C1CCN(c2nnc(N3CCCC3=O)s2)CC1,2.27
6,Cc1cc(C)nc(SCC(=O)Nc2cc(C)c(C)cc2Br)n1,-2.19
7,COc1ccc(-c2cc(C(F)F)n3ncc(C(=O)NCC(C)C)c3n2)cc1,-2.75
8,CCN1CCC(NCc2ccc(Br)cc2)CC1,-2.56
9,OCCSc1nnc(COc2ccc(Br)cc2)n1-c1ccccc1,0.401
10,O=C(NCc1nnc(SC/C=C/c2ccccc2)o1)c1cccs1,-1.58
11,Cc1ccc(S(=O)(=O)N(C)Cc2nc(-c3ccc(Br)cc3)no2)cc1,7.02
12,O=C(c1ccc2nc(N3CCOCC3)sc2c1)N1CCCC1,-0.637
13,N#Cc1ccc(Sc2nc3ccccc3[nH]2)cc1C#N,-2.13
14,CCOC(=O)c1cnc(SCc2cccc(Oc3ccccc3)c2)nc1N,-3.02
15,COc1ccc(CCNC(=O)C2c3ccccc3C(=O)N2Cc2ccc(F)cc2Cl)cc1OC (centres unmarked),5.23
16,CCCc1c(C(=O)OCC)[nH]c2c1C(=O)CC(C)(C)C2,-1.92
17,COc1cccc2c1OC(c1ccccc1Cl)N1N=C(c3ccco3)CC21 (centres unmarked),3.47
18,CCC(C)NC(=O)c1c(C)[nH]c(C(C)=O)c1C (centres unmarked),-0.0652
19,N#Cc1c(N)n(-c2cc(Cl)cc(Cl)c2)c2nc3ccccc3nc12,1.96
20,O=C(Nc1ccccc1C(=O)O)c1ccc(NC(=O)C2CC2)cc1,-0.553
21,O=C(Nc1cnn(C23CC4CC(CC(C4)C2)C3)c1)c1cc(-c2ccc(F)cc2)no1,4.07
22,CCCOC(=O)C1=C(C)NC(=O)NC1c1ccc(F)cc1 (centres unmarked),-0.0505
23,COc1ccc(-c2nc3c4cnn(C)c4ncn3n2)cc1,-4.64
24,Cc1cc(C)cc(NC(=O)c2ccc(Br)s2)c1,7.97
25,O=C(/C=C/c1ccco1)NC1=NCCS1,0.238

# From article PMC6919601, “Identification of Plasmodium dipeptidyl aminopeptidase allosteric inhibitors by high throughput screening” (PLoS ONE, 2019)
